About 4,200 (1.3%) of roughly 330,000 compounds were called active. Inconclusive results, whose numbers are uncertain, are shown with a selection of clear calls. The call rests on the fitted dose curve; in most records, active means well fitted activation curve with a large enough effect; inconclusive means small, poorly fitted or top-dose-only effect; inactive means no such curve, though single readings can be large or run the other way. A potency beside an inconclusive call is a rough fit, not a confirmed value.
Assay: qHTS screen for small molecules that induce genotoxicity in human embryonic kidney (HEK293T) cells expressing luciferase-tagged ELG1; further: nearly all actives have a fitted effect of over 60% in size; on activity change, positive = activation: % of control where 0% means no effect
Details: HEK293T ELG1-luciferase reporter, luminescence, 16 h; series mostly up to 46 µM; activity change, positive = activation: at the top concentration
Outline: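 Genotoxicity was scored as increased ELG1-luciferase reporter signal, measured by ONE-Glo luminescence (30 min, room temperature). Compound or vehicle exposure of the HEK293T reporter cells lasted 16 hr at 37°C.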
Potency means the concentration at half of the fitted maximal effect; tags describe the fitted curve by direction and shape.

Compound	Potency	activity change, positive = activation
CCOC(=O)c1cnc2cc(-c3ccc(Cl)cc3)nn2c1N	inconclusive: 1.64 µM [activator, full curve, poor fit]	–
O=C(NCCc1ccc(Cl)cc1)C1CCC(CNc2nc(=S)[nH]c3ccccc23)CC1 (stereo not given)	inconclusive: 23.1 µM [activator, partial curve, poor fit]	–
Nc1c(C(=O)N/N=C/c2ccccc2)cnn1-c1ccccc1	inconclusive: 4.61 µM [activator, partial curve]	–
Cc1ccc2sc(-c3ccc(NC(=O)CCN4C(=O)c5ccccc5C4=O)cc3)nc2c1	active: 4.61 µM	–
CC1CN=C(NC(=O)c2cccc([N+](=O)[O-])c2)S1 (stereo not given)	inconclusive: 0.794 µM [activator, full curve]	–
Cc1cccc(NS(=O)(=O)c2csc(C(N)=O)c2)c1C	–	inactive: -3.58%
O=C(/C=C/Sc1ccccc1)c1ccccc1	inconclusive: 29.1 µM [activator, single point]	–
CN(Cc1ccccc1)S(=O)(=O)c1ccc2[nH]c(=O)ccc2c1	inconclusive: 32.6 µM [activator, partial curve, poor fit]	–
Cc1ccc(-c2noc(CN3C(C)CCCC3C)n2)cc1 (stereo not given)	active: 20.6 µM	–
Cc1cccc(NC(=O)/C=C/c2ccc3c(c2)OCO3)n1	inconclusive: 2.06 µM [activator, partial curve]	–
COc1cccc(CNS(=O)(=O)c2c(C(=O)N3CCCCCC3)c(C)n(C)c2C)c1	–	inactive: 0.0321%
Cc1cnc(C(=O)OCC(=O)Nc2oc(-c3ccccc3)c(-c3ccccc3)c2C#N)cn1	inconclusive: 20.6 µM [activator, partial curve, poor fit]	–
CCn1cc(/C=C/C(=O)c2ccc(O)cc2)c(C)n1	active: 10.3 µM	–
COC(=O)CNC(=O)C1(C)C=CCN1C(=O)c1ccccc1 (stereo not given)	inconclusive: 25.9 µM [activator, partial curve, poor fit]	–
COc1cc(/C=C2\SC(=S)N(NC(=O)c3ccncc3)C2=O)ccc1O	–	inactive: 0.0413%
Cc1ccc(Oc2nccc(-c3ccc(Cl)cc3)n2)cc1	inconclusive: 10.3 µM [activator, partial curve]	–
COc1ccc(N2CC(C(=O)N/N=C/c3cc([N+](=O)[O-])ccc3O)CC2=O)cc1 (stereo not given)	–	inactive: 0.335%
COC(=O)CSc1nnc(-c2cccnc2)n1-c1cccc(OC)c1	–	inactive: 6.22%
COc1ccc(/C=N/NC(=O)Cc2ccc(Cl)cc2)cc1OC	inconclusive: 32.6 µM [activator, partial curve, poor fit]	–
Cc1[nH]n(-c2ccccc2)c(=O)c1N=Nc1ccc2c(c1)OCCO2	inconclusive: 10.3 µM [activator, partial curve]	–
CN1C(=O)c2cccc3c(S(=O)(=O)NCc4ccco4)ccc1c23	inconclusive: 16.4 µM [activator, single point]	–
CCOC(=O)CNC(=O)C1c2ccccc2Oc2ccccc21	–	inactive: -5.16%
CCCNC(=O)CN1CCC(c2nc3ccccc3[nH]2)CC1	–	inactive: -0.33%
COc1ccc(-c2cc(-c3ccc(C)cc3)n[nH]2)c(O)c1	inconclusive: 2.91 µM [activator, full curve, poor fit]	–

Compound	Potency	activity change, positive = activation
CC(=O)Nc1ccc(NC(=O)C(C)Sc2nnc(-c3ccc4c(c3)OCO4)o2)cc1 (stereo not given)	inconclusive: 23.1 µM [activator, partial curve, poor fit]	–
CCCOc1ccc(/C=N/NC(=S)Nc2ccccc2[N+](=O)[O-])c(O)c1	inconclusive: 3.26 µM [activator, full curve]	–
CCN(C(=O)c1ccc2c(=O)n3c(nc2c1)CCCCC3)c1ccccc1C	–	inactive: -5.09%
Cc1cc(=O)n(CCO)c(O)c1C#N	–	inactive: 0.177%
O=C(CSc1ccccc1)Nc1ccc(C(=O)Nc2ccc(O)cc2)cc1	inconclusive: 23.1 µM [activator, single point]	–
OC(COc1ccc2ccccc2c1Cl)CN1CCOCC1 (stereo not given)	inconclusive: 20.6 µM [activator, partial curve, poor fit]	–
CN(C)S(=O)(=O)c1cccc(C(=O)Nc2ccc3c(c2)CCC3)c1	active: 3.98 µM	–
O=C(NNC(=O)c1ccccc1F)c1cccc(Cl)c1	inconclusive: 18.4 µM [activator, partial curve, poor fit]	–
O=C(Cc1ccccc1[N+](=O)[O-])NCc1ccc2c(c1)OCO2	inconclusive: 20.6 µM [activator, single point]	–
Cc1ccc(-c2n[nH]c(=O)c3ccccc23)cc1S(=O)(=O)NC(C)(C)C	inconclusive: 20.6 µM [activator, single point]	–
O=C(N/N=C/c1ccc(O)c([N+](=O)[O-])c1)C1CC1(c1ccccc1)c1ccccc1 (stereo not given)	inconclusive: 16.4 µM [activator, partial curve, poor fit]	–
Cc1ccc(/C=C\c2nccc3c2[nH]c2ccccc23)cc1	inconclusive: 20.6 µM [activator, single point]	–
O=C(CCC(=O)N1CCN(S(=O)(=O)c2ccc([N+](=O)[O-])cc2)CC1)N1CCOCC1	–	inactive: -0.401%
N/C(=N\OC(=O)c1ccc2c(c1)OCO2)c1cccc([N+](=O)[O-])c1	inconclusive: 16.4 µM [activator, partial curve]	–
O=C(Nc1nc(-c2cccs2)cs1)C1=COCCO1	inconclusive: 14.6 µM [activator, partial curve]	–
COc1ccc2ccccc2c1CNCc1ccccn1	inconclusive: 14.6 µM [activator, partial curve]	–
O=C(Cn1c(=O)oc2ccccc21)NCCc1ccccc1	–	inactive: 0.525%
CCC(NC(=O)c1ccccc1NC(=O)c1ccc(C)cc1)C(=O)O (stereo not given)	inconclusive: 25.9 µM [activator, partial curve, poor fit]	–
COc1ccc(NC(=O)c2ccc3nccnc3c2)cc1	inconclusive: 7.31 µM [activator, partial curve, poor fit]	–
O=C(CSc1ccc(-c2cccs2)nn1)N1CCCCC1	inconclusive: 20.6 µM [activator, partial curve, poor fit]	–
COc1nc(-c2ccccc2)nnc1-c1ccccc1	active: 8.2 µM	–
CSc1cccc(N2CC(C(=O)NCCC3=CCCCC3)CC2=O)c1 (stereo not given)	inconclusive: 7.3 µM [activator, single point]	–
CCCC(=O)Nc1nnc(-c2ccc3c(c2)OCO3)s1	inconclusive: 6.51 µM [activator, partial curve, poor fit]	–
OCCNCCCOc1cc(Cl)ccc1Cl	inconclusive: 18.3 µM [activator, single point]	–

Compound	Potency	activity change, positive = activation
CCNc1nc(Cl)nc(NC2CCCCC2)n1	inconclusive: 14.6 µM [activator, partial curve, poor fit]	–
Nc1ccc(N=Nc2ccccc2)c(N)n1	inconclusive: 18.4 µM [activator, partial curve, poor fit]	–
COc1ccc(C2(O)CC3CCC(C2)N3c2nc(C)cc(C)c2C#N)cc1 (stereo not given)	inconclusive: 23.1 µM [activator, single point]	–
O=C(O)c1cccc(COc2ccc3c(c2)CCC3)c1	inconclusive: 0.13 µM [activator, partial curve, poor fit]	–
Cc1ccc(C)c(OCCC(=O)OCC(=O)Nc2ccc(C)c(S(=O)(=O)N3CCCCC3)c2)c1	inconclusive: 25.9 µM [activator, partial curve, poor fit]	–
COc1ccc(/C=C2/C(=O)N(c3c(F)c(F)c(F)c(F)c3F)N=C2C)cc1	–	inactive: 13.5%
COc1ccc(C(=O)/C=C2/Sc3cc4c(cc3N2C)OCO4)cc1	inconclusive: 8.2 µM [activator, partial curve, poor fit]	–
Cc1cc(-c2nnc(SCC(=O)Nc3cccc(F)c3)n2N)n[nH]1	–	inactive: 1.01%
CCc1ccc(NC(=O)CN2CCc3ccccc3C2)cc1	inconclusive: 20.6 µM [activator, partial curve, poor fit]	–
O=C(Nc1ccc2c(c1)CCC2)c1ccc(Cl)nc1	inconclusive: 7.3 µM [activator, partial curve]	–
O=C1CCN(Cc2ccc([N+](=O)[O-])cc2)CCN1[C@H](CO)c1ccccc1	–	inactive: -0.844%
C/C(N)=C(/C#N)C(=O)CSc1nnc(NC(C)C)s1	inconclusive: 20.6 µM [activator, partial curve, poor fit]	–
CCOC(=O)c1cnn(-c2ncnc3c2cnn3C)c1N	inconclusive: 23.1 µM [activator, partial curve, poor fit]	–
COc1cccc(OCc2nc3ccccc3[nH]2)c1	inconclusive: 2.06 µM [activator, full curve]	–
O=C(N/N=C/c1ccoc1)c1ccccc1F	inconclusive: 18.3 µM [activator, single point]	–
Cc1ccc(C(=O)CCNc2ccc(Cl)cc2)o1	inconclusive: 20.6 µM [activator, partial curve]	–
Cc1ccc2oc(C(=O)Nc3cc(C)on3)c(C)c2c1	inconclusive: 1.3 µM [activator, partial curve]	–
C=CCOc1ccc2c(OC)c3ccoc3nc2c1OC	inconclusive: 20.6 µM [activator, partial curve]	–
O=C(Nc1ccccc1)c1ccc(OC(=O)c2cc3ccccc3o2)cc1	inconclusive: 20.6 µM [activator, partial curve, poor fit]	–
O=C(Cn1c(=O)cnc2ccccc21)NNC(=O)c1ccc(Cl)cc1	–	inactive: 0.427%
COCCCNc1nc2ccccc2[nH]c1=O	–	inactive: 0.359%
Cc1cccc(NC(=O)C2C3CCCCC32)c1 (stereo not given)	inconclusive: 29.1 µM [activator, partial curve, poor fit]	–
